{"source": "patent US20260256822A1", "about": "“ENTRY-MODULATING AGENTS AND USES THEREFOR” (priority 2022, published 2026)", "test_system": "P. falciparum strain Pf3D7^0087/N9", "details": "in vivo", "data": [{"smiles": "CCC(C)[C@H]1O[C@]2(CC[C@@H]1C)C[C@@H]1C[C@@H](C/C=C(\\C)[C@@H](O[C@H]3C[C@H](OC)[C@@H](O[C@H]4C[C@@H](OC)[C@H](O)[C@@H](C)O4)[C@H](C)O3)[C@@H](C)/C=C/C=C3\\CO[C@@H]4[C@H](O)C(C)=C[C@@H](C(=O)O1)[C@]34O)O2", "note": "(some centres unmarked) [Ivermectin]", "values": [{"measurement": "reduction of parasitemia of the mice", "result": 26, "unit": "%"}, {"measurement": "parasitemia in humanized NSG mouse model", "setting": "ip, 5 mg/kg", "result": "reduces parasitemia"}]}]}
